Source: a collection of fitness landscapes (doi:10.1016/j.celrep.2020.107928)
In all, about 81,000 sequences were measured (“one-hybrid fitness for binding parS DNA”: median about -0.17, highest 2% from about 0.51 on). This is one part of the list.

B1: Caulobacter ParB omega fusion; a variant is named by its letters at X, in order, B8GW30 (parent)
chain: MESVVVGEPGMSEGRRGLGRGLSALLGEVDAAPAQAPGEQLGGSREAPIEILQRNPDQPRRTFREEDLEDLSNSIREKGVLQPILVRPSPDTAGEYQIVAGERAWRAAQRAGLKTVPIMVRELDDLAVLEIGIIENVQRADLNVLEEALSYKVLMEKFERTQENIAQTIGKSXSHVANXMRLLXLPDEVQSYLVSGELTAXHARAIAAAADPVALAKQIIEGGLSVRETEALARKAPNLSAGKSKGGRPPRVKDTDTQALESDLSSVLGLDVSIDHRGSTGTLTITYATLEQLDDLCNRLTRGI

Variants of: B1
Experiment: one-hybrid fitness for binding parS DNA (scaled: cognate 1, non-cognate 0); higher = stronger binding
Settings: with parS DNA site
How it was run: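 Pre- and post-selection plasmids were Illumina-sequenced, three replicate libraries were pooled, and any variant with under 10 reads was removed. The libraries were Caulobacter ParB with four specificity codons randomised, selected in E. coli USO through a HIS3 reporter whose site is 19 bp from the promoter. Cells grew 48 hours at 37°C on M9 without histidine, with 0.1 mM IPTG and 5 mM 3-AT. Fitness is the log change in variant-to-wild-type read ratio, rescaled against cognate and non-cognate.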

Variant | one-hybrid fitness for binding parS DNA
VPQM | ≤ 0.2
FAHC | ≤ 0.2
DIYL | ≤ 0.2
RILE | ≤ 0.2
PVKM | ≤ 0.2
HLCH | 0.217
HLCY | ≤ 0.2
QNHE | ≤ 0.2
PYIT | ≤ 0.2
YTPE | ≤ 0.2
GETR | ≤ 0.2
DFTS | ≤ 0.2
AKRL | ≤ 0.2
MCSG | ≤ 0.2
LKSA | ≤ 0.2
QFQL | ≤ 0.2
RWNI | ≤ 0.2
RIDS | 0.987
SPNI | ≤ 0.2
FASH | ≤ 0.2
AAYC | ≤ 0.2
TSPD | ≤ 0.2
HAKG | ≤ 0.2
LDDR | ≤ 0.2
DTMK | 0.236

Variant | one-hybrid fitness for binding parS DNA
TETW | ≤ 0.2
CTQR | ≤ 0.2
HIGF | ≤ 0.2
PICG | ≤ 0.2
DEVA | ≤ 0.2
PIHY | ≤ 0.2
WSQY | ≤ 0.2
YTFT | ≤ 0.2
MWPW | ≤ 0.2
QKWA | ≤ 0.2
HSAK | ≤ 0.2
WLCI | ≤ 0.2
CIRT | ≤ 0.2
FCTI | ≤ 0.2
ALIR | ≤ 0.2
HYFR | ≤ 0.2
AAGE | ≤ 0.2
CCLS | ≤ 0.2
QLKW | ≤ 0.2
WMDV | ≤ 0.2
RKME | ≤ 0.2
MGLN | ≤ 0.2
IYFS | ≤ 0.2
THNQ | ≤ 0.2
SCCR | ≤ 0.2

Variant | one-hybrid fitness for binding parS DNA
TLNN | ≤ 0.2
QGKT | ≤ 0.2
HQDC | ≤ 0.2
DAPN | ≤ 0.2
VAPV | ≤ 0.2
FSFG | ≤ 0.2
RHYF | 0.211
IPFR | ≤ 0.2
WVTC | ≤ 0.2
MVFC | ≤ 0.2
LMHE | ≤ 0.2
SHLS | ≤ 0.2
KNSS | ≤ 0.2
ACNY | ≤ 0.2
MLVQ | ≤ 0.2
QSKL | ≤ 0.2
RMCN | 0.389
KYPS | ≤ 0.2
CIYG | ≤ 0.2
VGTF | ≤ 0.2
QETE | ≤ 0.2
AVLL | ≤ 0.2
KTRL | ≤ 0.2
HAMA | ≤ 0.2
RPTT | ≤ 0.2

Variant | one-hybrid fitness for binding parS DNA
TPGC | ≤ 0.2
RGFA | 0.215
YDGG | ≤ 0.2
TLYW | ≤ 0.2
NDIP | ≤ 0.2
GKSH | ≤ 0.2
RPDH | ≤ 0.2
RFNC | 0.94
YKML | ≤ 0.2
AYPP | ≤ 0.2
QHTE | ≤ 0.2
ALQY | ≤ 0.2
GHKI | ≤ 0.2
DPKV | ≤ 0.2
HYKW | ≤ 0.2
TFNV | ≤ 0.2
IHPS | ≤ 0.2
QNFC | ≤ 0.2
YDTT | ≤ 0.2
ANWS | ≤ 0.2
RICK | 0.208
TMNT | ≤ 0.2
